Data on 101 compounds can be found in PMC6919601, “Identification of Plasmodium dipeptidyl aminopeptidase allosteric inhibitors by high throughput screening” (PLoS ONE, 2019).

About 230 (0.21%) of roughly 110,000 compounds showed an effect of 50% or more. Some of the results follow.
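Note: 30 min substrate incubation versus DMSO and 10 µM JCP410 controls.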

The assay deals with DPAP1 (Plasmodium falciparum, UniProt Q8IIJ9). Kind of assay: primary screen, percent inhibition; read by cleavage of a fluorogenic dipeptide substrate; higher = more effect of the substance. Set-up: species or system P. falciparum D10 trophozoite lysates; single well.
DPAP1, sequence (Q8IIJ9 whole entry, looked up): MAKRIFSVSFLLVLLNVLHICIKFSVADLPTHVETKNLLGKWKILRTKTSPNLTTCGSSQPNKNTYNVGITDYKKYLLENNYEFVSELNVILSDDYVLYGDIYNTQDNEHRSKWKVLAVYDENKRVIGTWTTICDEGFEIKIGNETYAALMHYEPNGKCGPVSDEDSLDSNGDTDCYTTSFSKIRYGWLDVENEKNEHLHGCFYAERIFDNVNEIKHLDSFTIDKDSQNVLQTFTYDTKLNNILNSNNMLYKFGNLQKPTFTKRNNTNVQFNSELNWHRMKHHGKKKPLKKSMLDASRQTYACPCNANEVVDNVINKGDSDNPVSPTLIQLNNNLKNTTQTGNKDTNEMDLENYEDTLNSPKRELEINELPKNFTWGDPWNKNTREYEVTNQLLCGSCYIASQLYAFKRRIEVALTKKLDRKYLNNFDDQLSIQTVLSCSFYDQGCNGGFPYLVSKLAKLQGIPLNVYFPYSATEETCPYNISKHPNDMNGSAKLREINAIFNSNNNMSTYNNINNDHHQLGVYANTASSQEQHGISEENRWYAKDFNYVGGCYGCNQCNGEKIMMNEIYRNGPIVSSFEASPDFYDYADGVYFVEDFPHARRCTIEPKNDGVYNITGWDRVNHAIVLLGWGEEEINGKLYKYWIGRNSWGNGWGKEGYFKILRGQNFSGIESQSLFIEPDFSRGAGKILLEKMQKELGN
As for `CSc1ncc(Cl)c(C(=O)Nc2sc3c(c2C(=O)NCC2CCCO2)CCCC3)n1` (centres unmarked), the “% Inhibition @ 10 uM” value is -1.11%. Consider `C/C(Cl)=C/Cn1c(SC(C)C)nc2c1c(=O)[nH]c(=O)n2C`, for which the “% Inhibition @ 10 uM” value is recorded as 0.687%. For `Cc1cccn2c(=O)c3cc(S(=O)(=O)c4ccccc4)c(=N)n(C4CCCCC4)c3nc12` the value was 7.49%. Take `CC(C)(C)c1ccc(C(=O)N(Cc2ccco2)C2CCS(=O)(=O)C2)cc1` (centres unmarked): the “% Inhibition @ 10 uM” value is -2.85%. The same measure for `COc1ccc(CCNC(=O)CNS(=O)(=O)c2ccc(Br)cc2)cc1`: -2.09%. The same measure for `Cc1cc(=O)oc2c3c(ccc12)OCN(C(C)(C)C)C3`: 1.44%.

As for `COCC(C)NC(=O)c1cc(-c2ccc(OC)cc2)on1` (centres unmarked), the “% Inhibition @ 10 uM” value is -6.26%. As for `N#Cc1cccc(N2C(=O)c3ccccc3C2=O)c1`, the “% Inhibition @ 10 uM” value amounted to 3.84%. In the case of `COc1cc(NC(=O)C2CC(=O)N=C(N)S2)cc(OC)c1` (centres unmarked), the “% Inhibition @ 10 uM” value is given as -3.29%. As for `O=C(O)c1ccc(-c2nc(-c3ccc(C(=O)c4ccccc4)cc3)c(-c3ccccc3)[nH]2)cc1`, the “% Inhibition @ 10 uM” value is -0.479%. Regarding `CC(=O)N1c2ccc([N+](=O)[O-])cc2NC(=O)CC1C` (centres unmarked), the “% Inhibition @ 10 uM” value was -0.197%. In the case of `COc1cccc(S(=O)(=O)NCc2ccc(C(=O)Nc3cccc(Cl)c3)cc2)c1`, the “% Inhibition @ 10 uM” value is reported as -1.55%. The same measure for `CC(C)(C)c1ccc(S(=O)(=O)NCc2ccc(C(=O)N3CCCC3)cc2)cc1`: -1.82%. The same measure for `O=C(CCc1ccccc1)Nc1nnc(Cc2ccc(Cl)c(Cl)c2)s1`: 1.58%.

Turning to `CC(CCc1ccco1)NC(=O)C1CCN(c2cnccn2)CC1` (centres unmarked), the “% Inhibition @ 10 uM” value is on record as -2.88%. For the compound `CN1C(C(=O)NCC2CCCO2)=CC(c2ccco2)=NS1(=O)=O` (centres unmarked), the “% Inhibition @ 10 uM” value came to 5.48%. The same measure for `NC(=O)c1nc2n(c1N)CCCCC2`: 2.73%; for `COc1cc2nc(O)n3nc(-c4ccccc4)nc3c2cc1OC`: 12.9%. `COc1ccc(CCNC(=O)c2cc(-c3ccco3)nc3ccccc23)cc1`: the “% Inhibition @ 10 uM” value was 9.59%. For `COc1ccc(-n2c(Cc3cccn3C)nnc2SCC(=O)N2CCC(C)CC2)cc1` the value was -5.76%; for `O=C(c1ccccc1)c1ccc(C(=O)N2CCN(c3ccc(F)cc3)CC2)o1`, -6.83%; for `Cn1c(C(=O)NCc2ccco2)cc2sccc21`, -4.85%. `CN1CCN(C(=O)/C(=C\c2cccs2)NC(=O)c2cccs2)CC1`: the “% Inhibition @ 10 uM” value is given as -7.02%. The same measure for `Cc1nn2c(O)cc(-c3ccccc3)nc2c1-c1ccc(Cl)cc1`: 3.41%.

As for `Cc1c(N2C(=O)c3cccc([N+](=O)[O-])c3C2=O)c(=O)n(-c2ccccc2)n1C`, the “% Inhibition @ 10 uM” value came out at 1.08%. For `CCCCOC(=O)c1ccc(-n2nnc3ccccc32)cc1` the value was -0.969%; for `CCOc1ccc(-c2cn3c(n2)sc2cc(C(=O)NCCCN4CCCCC4C)ccc23)cc1` (centres unmarked), 3.54%; for `CCN(CC)CCN(C)Cc1cccc(Cl)c1`, 1.26%.

For `O=C1c2cccnc2C(=O)N1CCc1ccc(S(=O)(=O)NCCc2ccc(Cl)cc2)cc1`, the “% Inhibition @ 10 uM” value is recorded as 5.86%. Turning to `CCN(CC)S(=O)(=O)c1cc(C(=O)Nc2ccc(C)cc2)cc(C)c1C`, the “% Inhibition @ 10 uM” value turned out to be 0.755%. As for `Cc1cccc(-c2nnc3sc(NC(=O)c4ccccc4F)nn23)c1`, the “% Inhibition @ 10 uM” value is on record as 0.00665%.

Take `COC(=O)c1cc(S(=O)(=O)NCCc2cccc(C)c2)cn1C`: the “% Inhibition @ 10 uM” value is listed as -6.59%. For `O=C(CN(c1ccccc1)S(=O)(=O)c1ccccc1)Nc1ccc(Cl)c(Cl)c1` the value was -8.37%; for `C1CNC2C(C1)C1CCCCN1C1CCCCN21` (centres unmarked), -3.21%; for `CC(=O)Nc1ccc(NS(C)(=O)=O)cc1`, -3.65%. For `O=C(CN1CCCCC1)N1CCN(c2nnc(-c3ccccc3)c3ccccc23)CC1` the value was 0.778%; for `Nc1cccc(CC(=S)N2CCOCC2)c1`, -3.35%. The same measure for `N=c1c2c(-c3ccccc3)c(-c3ccccc3)oc2ncn1CCCO`: 5%; for `CCOC(=O)c1nnn(-c2nonc2-c2ccccc2)c1CN(CC)CC`: -0.631%. In the case of `O=C(Nc1cccc(Cl)c1)N1CCCC1`, the “% Inhibition @ 10 uM” value is 4.73%.

`N/C(=N/OC(=O)CC(NC(=O)C(F)(F)F)c1ccccc1)c1nonc1N` (centres unmarked): the “% Inhibition @ 10 uM” value is -3.48%. Take `O=C(O)c1[nH]c2ccccc2c1Sc1ccc(Cl)cc1`: the “% Inhibition @ 10 uM” value was -2.21%. The same measure for `CC(=O)N1CCN(C2CCN(C)CC2)CC1`: -0.0908%. On to `CN1CCN(C(=O)/C(=C/c2ccccc2)NC(=O)c2ccccc2)CC1`, for which the “% Inhibition @ 10 uM” value is recorded as -0.968%.

`COC(=O)c1cc(S(=O)(=O)N2CCCC(C)C2)c[nH]1` (centres unmarked): the “% Inhibition @ 10 uM” value is -7.52%.

For `CNC(=O)c1cc(-c2ccc(OC)c(OC)c2)nc2ccccc12`, the “% Inhibition @ 10 uM” value is reported as -11%. Regarding `O=C(NCC1CCCO1)c1ccccc1` (centres unmarked), the “% Inhibition @ 10 uM” value is -0.292%. Take `Cc1nnc(N2CCC(C(=O)NCc3ccccc3Cl)CC2)c2nn(-c3ccccc3)c(C)c12`: the “% Inhibition @ 10 uM” value is -2.12%. As for `COc1ccc(S(=O)(=O)Nc2cc(Cl)c(Cl)cc2Cl)cc1`, the “% Inhibition @ 10 uM” value is -4.63%. The same measure for `CCCN1C(=O)c2[nH]nc(-c3ccc(F)cc3)c2C1c1cccs1` (centres unmarked): 0.635%. As to `CC(=O)NS(=O)(=O)c1ccc(NC(=O)c2ccccc2F)cc1`, the “% Inhibition @ 10 uM” value is listed as -0.95%. Regarding `CN(CC(=O)NCc1ccc(Cl)cc1)S(=O)(=O)c1ccc(-c2ccc(O)nn2)s1`, the “% Inhibition @ 10 uM” value is given as -8.58%. For `Cc1ccc(C(=O)c2oc3ccccc3c2NC(=O)C(C)C)cc1` the value was 5.5%; for `O=C(CN(c1ccc(Cl)c(C(F)(F)F)c1)S(=O)(=O)c1ccccc1)NCC1CCCO1` (centres unmarked), 20%. `COCCNC(=O)C1CCN(S(=O)(=O)N2CCCC2)CC1`: the “% Inhibition @ 10 uM” value is 2.18%. In the case of `O=C(O)CC1(CC(=O)Nc2ccccc2Br)CCCC1`, the “% Inhibition @ 10 uM” value is -1.82%. For `CCCC1=NC(C(F)(F)F)(C(F)(F)F)N=C(N2CCOCC2)O1` the value was -1.72%; for `NS(=O)(=O)c1ccc(NC(=O)/C=C/c2cccc([N+](=O)[O-])c2)cc1`, 11.4%. Turning to `O=C(CN(CCc1ccccc1)S(=O)(=O)c1ccc(Cl)cc1)N1CCCCCC1`, the “% Inhibition @ 10 uM” value was -4.14%.

As for `COc1ccc(C(=O)N2CCCCC2)cc1S(=O)(=O)N1CCOCC1`, the “% Inhibition @ 10 uM” value was -0.48%. The same measure for `COc1cc(/C=C2\NC(=O)NC2=O)cc(Br)c1OC`: 0.273%; for `Cn1cc(SCC(=O)Nc2nccs2)c2ccccc21`: -3.67%. For `CCNC(=O)/C(C#N)=C/c1c(Oc2cccc(C)c2)nc2ccccn2c1=O` the value was 3.12%. For `CC(=O)c1cccc(NS(=O)(=O)c2c(C)cc(C)cc2C)c1`, the “% Inhibition @ 10 uM” value was 0.475%. On to `NS(=O)(=O)c1ccc(CCNC(=O)CCC2COc3ccccc3O2)cc1` (centres unmarked), for which the “% Inhibition @ 10 uM” value is reported as -5.41%. For `CC(C)(C)NCC(O)COc1ccc(Cl)cc1` (centres unmarked) the value was 0.177%; for `COc1ccc(C(=O)Nc2ccccc2C(C)C)cc1`, 2.65%. Regarding `N#CCNC(=O)[C@H](Cc1ccccc1)NC(=O)c1ccccc1`, the “% Inhibition @ 10 uM” value was -1.83%. In the case of `COC(=O)C1=CN(C)C=C(C(=O)OC)C1c1cc(Cl)c(O)c(OC)c1`, the “% Inhibition @ 10 uM” value was -5.05%.

Take `Cc1ccccc1OCC(=O)Nc1ccc(Nc2ccccc2)cc1`: the “% Inhibition @ 10 uM” value amounted to 2.17%. The same measure for `CCOc1cc(C)c(S(=O)(=O)Nc2ccc(Cl)cn2)cc1C`: -1.17%. The same measure for `CCSc1nnc(C)c2ccccc12`: -8.8%. The same measure for `CCOc1ccc(C(=O)Cc2ccccc2)cc1`: 3.39%; for `O=C(NCc1ccc2c(c1)OCO2)c1nc(S(=O)(=O)Cc2ccc(F)cc2)ncc1Cl`: -0.946%. `O=C1/C(=C\c2cc3c(cc2Br)OCO3)Sc2ccccc21`: the “% Inhibition @ 10 uM” value came to 4.07%. The same measure for `N#CC1(c2ccccc2)CCCN1C(=O)c1ccc(Br)o1` (centres unmarked): -7.18%.

For `O=C1c2ccccc2-c2nnc(-c3ccc4c(c3)OCO4)cc21`, the “% Inhibition @ 10 uM” value is on record as -2.15%. For `Cc1ccc(C2C(C#N)=C(N)Oc3[nH]c(C)nc32)cc1` (centres unmarked) the value was 2.01%; for `CCC(Cc1ccccc1)NC(=O)c1cc(S(=O)(=O)N2CCCCC2)c[nH]1` (centres unmarked), 1.17%; for `CCn1c(=N)n(CCCOc2ccccc2)c2ccccc21`, -2.21%. The same measure for `O=[N+]([O-])c1cc(-c2ccnn2-c2ccccc2)c(Cl)cc1Cl`: -0.261%. For the compound `CC(=O)C1=C(O)C(=O)N(CCc2c[nH]c3ccccc23)C1c1ccc(O)cc1` (centres unmarked), the “% Inhibition @ 10 uM” value is reported as -1.89%. The same measure for `O=C(O)CCC(=O)NCc1cccnc1`: -4.35%.

Take `COCCNCc1c(C(=O)O)n(Cc2ccccc2C)c2cc(C)ccc12`: the “% Inhibition @ 10 uM” value was -0.717%.

Regarding `COc1cccc(C(=O)Nc2cc(C(F)(F)F)cc(C(F)(F)F)c2)c1OC`, the “% Inhibition @ 10 uM” value was -3.5%.

`CC1(C)CC(=O)C(C(=O)CCCN2C(=O)c3ccccc3C2=O)=C(N2CCCC2)C1`: the “% Inhibition @ 10 uM” value is -6.42%.

In the case of `CC(C)N(Cc1nc(-c2ccc(Cl)cc2)no1)C(=O)c1cccs1`, the “% Inhibition @ 10 uM” value is -0.352%. Consider `Cc1cccc(C)c1NC(=O)C(C)(C)NC(=O)CN1C(=O)c2ccccc2C1=O`, for which the “% Inhibition @ 10 uM” value is on record as -2.72%.

For `C=CCSc1ncccc1C(=O)NCCc1ccccc1`, the “% Inhibition @ 10 uM” value is -2.26%. Take `N#C/C(=C\c1ccc(Cl)cc1)c1nc(-c2ccccc2)cs1`: the “% Inhibition @ 10 uM” value is reported as -3.79%.

In the case of `COCCNc1nc2c(c(=O)n(C)c(=O)n2C)n1Cc1cc(OC)ccc1Cl`, the “% Inhibition @ 10 uM” value stood at 0.248%. The same measure for `COc1ccc(S(=O)(=O)Nc2ccc(C)c(O)c2)cc1`: -1.11%; for `CN1CCN(C(=O)CSc2nc3c(c(C(F)(F)F)n2)CCc2ccccc2-3)CC1`: 4.93%.

As for `COc1ccc(CN(C)CCN(C)C)cc1C`, the “% Inhibition @ 10 uM” value was -3.04%. Regarding `CCOc1cccc(-c2nnc(SCC(=O)C34CC5CC(CC(C5)C3)C4)n2C)c1`, the “% Inhibition @ 10 uM” value is given as -3.34%. On to `COC(=O)Cn1c2c(c3cc(C)ccc31)CCCC2`, for which the “% Inhibition @ 10 uM” value is -1.82%. Take `COc1ccc(NC(=O)c2sc3nc(-c4cccs4)ccc3c2N)c(C)c1`: the “% Inhibition @ 10 uM” value was determined as 3.53%.

For the compound `O=C(c1cc2c(s1)-c1ccccc1OC2)N1CCOCC1`, the “% Inhibition @ 10 uM” value was -3.08%. Turning to `CCOC(=O)c1c(NC(=O)c2cncc(Br)c2)sc2c1CCC2`, the “% Inhibition @ 10 uM” value turned out to be 1.58%.

On to `CCC(C)(Nc1ccccc1)c1nnnn1C(/C=C\c1ccc(Cl)cc1Cl)C(C)(C)C` (centres unmarked), for which the “% Inhibition @ 10 uM” value is 2.59%. On to `CCCN(CCC)CCNC(=O)c1nn(C)c2c1CSc1ccccc1-2`, for which the “% Inhibition @ 10 uM” value turned out to be 1.68%.
